Experimental findings from paper PMC12429063, “The BUB1 and BUBR1 paralogs scaffold the kinetochore fibrous corona” (Science Advances, 2025) are described below.

This assay addresses T1, RZZS rings: mCherry-RZZ polymerized with farnesylated GFP-Spindly in the presence of MPS1 kinase domain (UniProt P50748 1-2209; Q9H900 1-591; O43264 1-779; Q96EA4 1-605, incubated with MPS1 kinase domain and ATP (the paper names T13 and S15 of ROD as the MPS1 sites) | farnesylated).
T1 construct: ROD, subunit of the RZZ complex; Zwilch, subunit of the RZZ complex; ZW10, subunit of the RZZ complex; Spindly, dynein-dynactin adaptor; A polymer; also called polymerized RZZS; RZZS filaments; copies: + + +
T1 sequence (P50748 whole entry, chain 1 of 4, the tested form may be a part): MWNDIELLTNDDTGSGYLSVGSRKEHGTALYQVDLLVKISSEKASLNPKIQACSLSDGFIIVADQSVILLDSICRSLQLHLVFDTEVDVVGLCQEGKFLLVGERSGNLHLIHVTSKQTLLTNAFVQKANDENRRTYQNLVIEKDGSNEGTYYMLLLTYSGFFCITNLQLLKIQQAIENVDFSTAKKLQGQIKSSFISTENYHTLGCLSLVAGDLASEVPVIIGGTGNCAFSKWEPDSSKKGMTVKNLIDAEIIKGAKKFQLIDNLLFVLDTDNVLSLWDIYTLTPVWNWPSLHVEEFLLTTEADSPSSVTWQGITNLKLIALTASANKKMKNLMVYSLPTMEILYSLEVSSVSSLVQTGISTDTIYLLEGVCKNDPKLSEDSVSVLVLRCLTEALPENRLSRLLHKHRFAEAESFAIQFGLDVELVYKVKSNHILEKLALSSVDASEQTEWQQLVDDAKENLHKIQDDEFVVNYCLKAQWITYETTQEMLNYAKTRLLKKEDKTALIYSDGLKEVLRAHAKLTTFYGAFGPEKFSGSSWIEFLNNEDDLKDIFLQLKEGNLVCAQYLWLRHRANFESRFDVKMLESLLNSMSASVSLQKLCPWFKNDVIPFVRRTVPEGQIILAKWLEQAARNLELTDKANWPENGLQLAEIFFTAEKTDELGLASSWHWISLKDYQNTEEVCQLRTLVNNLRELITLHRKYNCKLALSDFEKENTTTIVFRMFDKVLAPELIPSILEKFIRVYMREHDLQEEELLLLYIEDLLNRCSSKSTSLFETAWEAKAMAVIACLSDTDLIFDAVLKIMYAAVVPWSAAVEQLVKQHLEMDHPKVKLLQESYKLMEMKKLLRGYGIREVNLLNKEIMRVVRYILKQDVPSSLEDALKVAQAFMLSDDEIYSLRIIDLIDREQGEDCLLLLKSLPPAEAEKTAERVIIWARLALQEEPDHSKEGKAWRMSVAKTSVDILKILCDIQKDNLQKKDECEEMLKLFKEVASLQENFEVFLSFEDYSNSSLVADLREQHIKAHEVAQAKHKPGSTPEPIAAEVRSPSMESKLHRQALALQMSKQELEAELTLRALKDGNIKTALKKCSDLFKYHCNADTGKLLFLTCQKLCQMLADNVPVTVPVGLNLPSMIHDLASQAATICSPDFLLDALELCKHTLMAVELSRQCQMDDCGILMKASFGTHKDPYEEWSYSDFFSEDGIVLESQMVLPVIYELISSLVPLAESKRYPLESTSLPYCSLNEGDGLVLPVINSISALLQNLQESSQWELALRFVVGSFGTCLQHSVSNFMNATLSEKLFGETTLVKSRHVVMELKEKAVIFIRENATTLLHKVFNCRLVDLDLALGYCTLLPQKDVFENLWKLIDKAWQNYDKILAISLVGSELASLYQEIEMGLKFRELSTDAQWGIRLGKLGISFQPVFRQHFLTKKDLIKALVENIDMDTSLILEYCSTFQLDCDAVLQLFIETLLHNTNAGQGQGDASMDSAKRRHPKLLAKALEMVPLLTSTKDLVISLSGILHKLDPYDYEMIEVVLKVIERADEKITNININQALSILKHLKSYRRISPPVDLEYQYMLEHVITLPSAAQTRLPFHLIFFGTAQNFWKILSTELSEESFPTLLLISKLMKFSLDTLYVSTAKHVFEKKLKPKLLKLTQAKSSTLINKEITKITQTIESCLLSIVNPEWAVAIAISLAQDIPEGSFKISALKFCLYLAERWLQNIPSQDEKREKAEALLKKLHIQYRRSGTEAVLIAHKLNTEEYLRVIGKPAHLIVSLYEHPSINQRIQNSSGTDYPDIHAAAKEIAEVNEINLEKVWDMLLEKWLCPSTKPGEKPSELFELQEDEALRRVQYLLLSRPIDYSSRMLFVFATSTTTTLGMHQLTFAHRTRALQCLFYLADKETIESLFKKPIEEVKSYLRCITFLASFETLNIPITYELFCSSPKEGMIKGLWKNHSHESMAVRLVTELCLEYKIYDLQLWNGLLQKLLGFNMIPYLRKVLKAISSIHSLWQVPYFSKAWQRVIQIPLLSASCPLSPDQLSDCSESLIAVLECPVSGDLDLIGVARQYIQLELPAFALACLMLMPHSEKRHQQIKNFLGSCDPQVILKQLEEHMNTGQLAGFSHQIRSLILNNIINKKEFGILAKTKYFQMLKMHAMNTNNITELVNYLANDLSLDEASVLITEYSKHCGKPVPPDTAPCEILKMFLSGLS
T1 sequence (Q9H900 whole entry, chain 2 of 4, further chain, the tested form may be a part): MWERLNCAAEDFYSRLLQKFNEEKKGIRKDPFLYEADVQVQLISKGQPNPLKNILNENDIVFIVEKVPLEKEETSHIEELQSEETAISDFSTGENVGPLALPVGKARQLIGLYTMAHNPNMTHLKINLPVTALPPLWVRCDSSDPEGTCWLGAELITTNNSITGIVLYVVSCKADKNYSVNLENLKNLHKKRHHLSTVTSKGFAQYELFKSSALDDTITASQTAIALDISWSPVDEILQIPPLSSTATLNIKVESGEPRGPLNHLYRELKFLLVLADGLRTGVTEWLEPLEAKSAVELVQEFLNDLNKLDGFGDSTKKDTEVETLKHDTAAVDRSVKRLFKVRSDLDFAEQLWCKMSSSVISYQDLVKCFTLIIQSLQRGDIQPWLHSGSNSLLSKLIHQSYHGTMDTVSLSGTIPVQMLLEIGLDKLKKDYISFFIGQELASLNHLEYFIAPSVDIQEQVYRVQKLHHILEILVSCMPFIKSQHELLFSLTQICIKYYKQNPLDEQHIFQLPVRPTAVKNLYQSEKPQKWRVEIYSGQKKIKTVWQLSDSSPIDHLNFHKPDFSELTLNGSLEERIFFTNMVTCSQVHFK
T1 sequence (O43264 whole entry, chain 3 of 4, further chain, the tested form may be a part): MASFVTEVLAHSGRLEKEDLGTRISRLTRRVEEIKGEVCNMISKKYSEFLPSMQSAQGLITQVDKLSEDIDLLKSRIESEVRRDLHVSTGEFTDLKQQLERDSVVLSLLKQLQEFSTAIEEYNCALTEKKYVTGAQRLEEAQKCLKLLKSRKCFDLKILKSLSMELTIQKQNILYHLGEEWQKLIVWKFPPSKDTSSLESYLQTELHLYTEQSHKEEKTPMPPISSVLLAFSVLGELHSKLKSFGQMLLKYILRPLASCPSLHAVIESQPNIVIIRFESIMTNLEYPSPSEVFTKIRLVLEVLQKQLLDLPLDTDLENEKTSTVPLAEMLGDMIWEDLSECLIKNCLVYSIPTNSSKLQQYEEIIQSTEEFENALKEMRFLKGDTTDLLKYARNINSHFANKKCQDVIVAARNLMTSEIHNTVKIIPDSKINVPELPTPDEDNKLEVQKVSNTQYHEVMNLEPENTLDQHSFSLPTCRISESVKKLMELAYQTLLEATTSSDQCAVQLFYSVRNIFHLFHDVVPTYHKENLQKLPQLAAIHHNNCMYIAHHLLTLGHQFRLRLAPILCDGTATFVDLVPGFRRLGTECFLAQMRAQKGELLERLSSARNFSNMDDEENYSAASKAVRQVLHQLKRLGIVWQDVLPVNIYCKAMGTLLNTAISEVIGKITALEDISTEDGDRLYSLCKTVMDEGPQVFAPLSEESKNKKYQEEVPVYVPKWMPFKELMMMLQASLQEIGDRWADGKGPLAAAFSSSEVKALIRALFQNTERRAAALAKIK
T1 sequence (Q96EA4 whole entry, chain 4 of 4, further chain, the tested form may be a part): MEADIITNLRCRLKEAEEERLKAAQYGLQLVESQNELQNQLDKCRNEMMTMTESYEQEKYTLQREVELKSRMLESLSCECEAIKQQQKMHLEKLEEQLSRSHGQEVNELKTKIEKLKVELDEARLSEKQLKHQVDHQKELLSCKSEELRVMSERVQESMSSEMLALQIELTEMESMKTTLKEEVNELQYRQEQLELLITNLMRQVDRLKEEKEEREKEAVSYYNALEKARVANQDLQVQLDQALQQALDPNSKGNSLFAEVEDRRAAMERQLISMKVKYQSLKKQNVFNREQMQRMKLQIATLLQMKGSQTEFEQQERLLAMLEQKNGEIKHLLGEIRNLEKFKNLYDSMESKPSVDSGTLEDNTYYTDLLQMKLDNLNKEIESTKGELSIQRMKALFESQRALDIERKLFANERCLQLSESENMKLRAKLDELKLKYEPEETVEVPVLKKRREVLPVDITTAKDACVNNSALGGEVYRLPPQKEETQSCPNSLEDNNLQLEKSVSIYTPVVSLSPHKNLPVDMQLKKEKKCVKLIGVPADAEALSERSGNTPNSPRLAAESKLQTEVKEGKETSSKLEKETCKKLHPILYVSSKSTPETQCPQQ
The assay can be described thus: co-sedimentation; pelleting assay: polymerized RZZS incubated with preys 2 hours at 20°C, 40% glycerol cushion, 100,000g 45 min at 20°C; 50 mM Hepes pH 8, 100 mM NaCl, 2 mM MgCl2, 1 mM TCEP. The conditions noted are these: both partners purified.

B1: MBP-MAD1:MAD2-6His, full length (complex)
chain 1: MEDLGENTMVLSTLRSLNNFISQRVEGGSGLDISTSAPGSLQMQYQQSMQLEERAEQIRSKSHLIQVEREKMQMELSHKRARVELERAASTSARNYEREVDRNQELLTRIRQLQEREAGAEEKMQEQLERNRQCQQNLDAASKRLREKEDSLAQAGETINALKGRISELQWSVMDQEMRVKRLESEKQELQEQLDLQHKKCQEANQKIQELQASQEARADHEQQIKDLEQKLSLQEQDAAIVKNMKSELVRLPRLERELKQLREESAHLREMRETNGLLQEELEGLQRKLGRQEKMQETLVGLELENERLLAKLQSWERLDQTMGLSIRTPEDLSRFVVELQQRELALKDKNSAVTSSARGLEKARQQLQEELRQVSGQLLEERKKRETHEALARRLQKRVLLLTKERDGMRAILGSYDSELTPAEYSPQLTRRMREAEDMVQKVHSHSAEMEAQLSQALEELGGQKQRADMLEMELKMLKSQSSSAEQSFLFSREEADTLRLKVEELEGERSRLEEEKRMLEAQLERRALQGDYDQSRTKVLHMSLNPTSVARQRLREDHSQLQAECERLRGLLRAMERGGTVPADLEAAAASLPSSKEVAELKKQVESAELKNQRLKEVFQTKIQEFRKACYTLTGYQIDITTENQYRLTSLYAEHPGDCLIFKATSPSGSKMQLLETEFSHTVGELIEVHLRRQDSIPAFLSSLTLELFSRQTVA
chain 2: [about 200 residues not listed]
notes: MAD1 (mitotic arrest deficient 1); MAD2 (mitotic arrest deficient 2); In the pull-downs with phosphorylation bait and prey were incubated together with CCC and MPS1 kinase domain, so this prey met the kinases too; also called MBP-MAD1/2; ^MBPMAD1/2^FL; source: Tnao38 insect cells coinfected with baculoviruses, purified (HisTrap, ResourceQ)
In the case of B1, the binding result is “binds”.
